Laboratory results reported in the supplement of paper PMC12217912.
The list shows a part of the results. The full chains were built here from the parent and the listed change. Inactive controls read about 0.05.

B1: TEV protease; numbered along this chain (parent)
chain: MGESLFKGPRDYNPISSSICHLTNESDGHTTSLYGIGFGPFIITNKHLFRRNNGTLVVQSLHGVFKVKDTTTLQQHLVDGRDMIIIRMPKDFPPFPQKLKFREPQREERICLVTTNFQTKSMSSMVSDTSCTFPSGDGIFWKHWIQTKDGQCGSPLVSTRDGFIVGIHSASNFTNTNNYFTSVPKNFMELLTNQEAQQWVSGWRLNADSVLWGGHKVFMVKPEEPFQPVKEATQL

Variants of: B1
Experiment: raw area under fraction-flipped curve 0-4 h after induction (AUC4h, not background-subtracted), DNA-recorder readout of cleavage of the substrate (dimensionless); higher = more cleavage of the substrate by the protease variant
Conditions: temperature: 34 °C; time window: 0-4 h after rhamnose induction
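Also: Bxb1 expression induced with 0.2% (w/v) L-rhamnose at OD600 near 0.5, cultures sampled hourly, flipped fraction per protease–substrate barcode pair counted by paired-end Illumina sequencing.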

Row | Variant | area with substrate ECLYFQS | area with substrate EDLYFQS | area with substrate EFLYFQS | area with substrate ELLYFQS | area with substrate EPLYFQS | area with substrate ERLYFQS | area with substrate ESLYFQS | area with substrate ETLYFQS | area with substrate EVLYFQS | area with substrate EWLYFQS | area with substrate EILYFQS | area with substrate EYLYFQS | area with substrate EELYFQS | area with substrate EMLYFQS | area with substrate EGLYFQS | area with substrate EHLYFQS | area with substrate EKLYFQS | area with substrate EQLYFQS
1 | MGESLFKGPRDYNPISSSICHLTNESDGHTTSLYGIGFGPFIITNKHLFRRNNGTLVVQSLHGVFKVKDTTTLQQHLVDGRDMIIIRMPKDFPPFPQKLKFREPQREERICLVTTNFQTKSMSSMVSDTSCTFPSGDGIFWKHWIQTKDGQCGSPLVSTRDGFIVGIHSASNFTNTNNYFTSVPKNFMELLTNQEAQQWVSGWRWNADSVLWGGHKVFMVKPEEPFQPVKEATQL [L205W] | 0.0848 | 0.121 | 0.114 | 0.0706 | 0.0999 | 0.0681 | 0.0539 | 0.0846 | 0.0902 | 0.0828 | – | – | – | – | – | – | – | –
2 | MGESLFKGPRDYNPISSSICHLTNESDGHTTSLYGIGFGPFIITNKHLFRRNNGTLVVQSLHGVFKVKDTTTLQQHLVDGRDMIIIRMPKDFPPFPQKLKFREPQREERICLVTTNFQTKSMSSMVSDTSCTFPSGDGIFWKHWIQTKDGQCGSPLVSTRDGFIVGIHSASNFTNTNNYFTSVPKNFMELLTNQEAQQHVSGWRLNADSVLWGGHKVFMVKPEEPFQPVKEATQL [W199H] | 0.0485 | – | – | – | 0.0506 | 0.0625 | 0.0626 | – | 0.058 | 0.0594 | 0.0728 | 0.0606 | – | – | – | – | – | –
3 | MGESLFKGPRDYNPISSSICHLTNESDGHTTSLYGIGFGPFIITNKHLFRRNNGTLVVQSLHGVFKVKDTTTLQQHLVDGRDMIIIRMPKDFPPFPQKLKFREPQREERICLVTTNFQTKSMSSMVSDTSCTFPSGDGIFWKHWIQTKDGQCGSPLVSTRDGFIVGIHSASNFTNTNNYFTSVPKNFMELLTNQEAQQWVSGWRLNADSVLWGGHKVFMVKPEEPFQPVKEAGQL [T233G] | 0.112 | 0.114 | – | 0.0947 | 0.0942 | 0.0892 | 0.109 | 0.103 | 0.0876 | 0.131 | 0.122 | – | 0.12 | 0.113 | – | – | – | –
4 | MGESLFKGPRDYNPISSSICHLTNESDGHTTSLYGIGFGPFIITNKHLFRRNNGTLVVQSLHGVFKVKDTTTLQQHLVDGRDMIIIRMPKDFPPFPQKLKFREPQREERICLVTTNFQTKSMSSMVSDTSCTFPSGDGIFWKHWIQTKDGQCGSPLVSTRDGFIVGIHSASNFTNTNNYFTSVPKNFMELLTNQEAQQWVSGWRLNADSVLWGGHKVFMVKPEEPFQPVKEAKQL [T233K] | 0.162 | – | 0.104 | – | 0.1 | 0.0476 | 0.156 | 0.126 | 0.108 | – | 0.108 | – | – | – | 0.105 | 0.118 | 0.123 | 0.119
5 | MGESLFKGPRDYNPISSSICHLTNESDGHTTSLYGIGFGPFIITNKHLFRRNNGTLVVQSLHGVFKVKDTTTLQQHLVDGRDMIIIRMPKDFPPFPQKLKFREPQREERICLVTTNFQTKSMSSMVSDTSCTFPSGDGIFWKHWIQTKDGQCGSPLVSTRDGFIVGIHSASNFTNTNNYFTSVPKNFMELLTNQEAQQWVKGWRLNADSVLWGGHKVFMVKPEEPFQPVKEATQL [S201K] | 0.109 | – | – | 0.0096 | – | 0.0907 | 0.0993 | – | – | – | 0.111 | – | 0.123 | – | – | – | – | –
6 | MGESLFKGPRDYNPISSSICHLTNESDGHTTSLYGIGFGPFIITNKHLFRRNNGTLVVQSLHGVFKVKDTTTLQQHLVDGRDMIIIRMPKDFPPFPQKLKFREPQREERICLVTTNFQTKSMSSMVSDTSCTFPSGDGIFWKHWIQTKDGQCGSPLVSTRDGFIVGIHSASNFTNTNNYFTSVPKNFMELLTNQEAQQWVSGWRLNADSVLWGGHKVFMVKPEEPFQPVEEATQL [K230E] | 0.0929 | – | – | 0.094 | 0.102 | 0.101 | 0.101 | – | 0.0932 | 0.0991 | 0.0835 | 0.114 | – | 0.129 | 0.102 | 0.0993 | 0.113 | –
7 | MGESLFKGPRDYNPISSSICHLTNESDGHTTSLYGIGFGPFIITNKHLFRRNNGTLVVQSLHGVFKTKDTTTLQQHLVDGRDMIIIRMPKDFPPFPQKLKFREPQREERICLVTTNFQTKSMSSMVSDTSCTFPSGDGIFWKHWIQTKDGQCGSPLVSTRDGFIVGIHSASNFTNTNNYFTSVPKNFMELLTNQEAQQWVSGWRLNADSVLWGGHKVFMVKPEEPFQPVKEATQL [V67T] | – | 0.0995 | – | 0.0812 | – | – | 0.0803 | – | 0.0628 | – | 0.0754 | – | 0.0942 | – | – | – | 0.0653 | –
8 | MGESLFKGPRDYNPISSSICHLTNESDGHTTSLYGIGFGPFIITNKHLFRRNNGTLVVQSLHGVFKVKDTTTLQQHLVDGRDMIIIRMPKDFPPFPQKLKFREPQREERICLVTTNFQTKSMSSMVSDTSCTFPSGDGIFWKHWIQTKDGQCGSPLVSTRDGFIVGIHSASNFTNTNNYFTSVPKNFMELLTNQEAQQWVSGWRLNADSVLKGGHKVFMVKPEEPFQPVKEATQL [W212K] | 0.0684 | 0.0765 | – | 0.0526 | 0.0845 | – | 0.0675 | 0.0621 | 0.0655 | 0.0688 | 0.065 | 0.0602 | 0.0675 | – | 0.0355 | – | 0.0581 | –
9 | MGESLFKGPRDYNPISSSICHLTNESDGHTTSLYGIGFGPFIITNKHLFRRNNGTLVVQSLHGVFKVKDTTTLQQHLVDGRDMIIIRMPKDFPPFPQKLKFREPQREERICLVTTNFQTKSMSSMVSDTSCTFPSGDGIFWKHWIQTKDGQCGSPLVSTRDGFIVGIHSASNFTNTNNYFTSVPKNFMELLTNQEAQQWVSGWRLNADSVLWFGHKVFMVKPEEPFQPVKEATQL [G213F] | 0.0526 | 0.064 | 0.0808 | – | – | 0.0646 | 0.0598 | 0.0481 | 0.057 | 0.0706 | 0.0745 | 0.0625 | 0.0611 | – | – | – | 0.0532 | –
10 | MGESLFKGPRDYNPISSSICHLTNESDGHTTSLYGIGFGPFIITNKHLFRRNNGTLVVQSLHGVFKVKDTTTLQQHLVDGRDMIIIRMPKDFPPFPQKLKFREPQREERICLVTTNFQTKSMSSMVSDTSCTFPSGDGIFWKHWIQTKDGQCGSPLVSTRDGFIVGIHSASNFTNTNNYFTSVPKNFMELLTNQEAQQWVSGYRLNADSVLWGGHKVFMVKPEEPFQPVKEATQL [W203Y] | 0.092 | 0.0993 | – | 0.0906 | 0.0931 | 0.0674 | 0.0891 | – | 0.0709 | 0.11 | 0.0753 | – | 0.118 | – | – | 0.0986 | 0.0938 | 0.0945
